Source: PubChem BioAssay AID1656 (Sanford-Burnham Center for Chemical Genomics, 2009)
Some of the results follow. These are further read-outs of the screen, such as a control signal, another cell line or another target. No call is given for them. Most of these compounds were active or inconclusive in the main read-out, so they are no random draw.

experiment: inhibitors of hepatocyte lipid droplet formation, primary screen, imaging, high-throughput imaging, BODIPY stain (AID 1656); details: AML12 mouse hepatocytes, oleate lipid droplets, measured here: cell count, cytotoxicity flag, at 6.5 µM;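 further: cells counted across two imaged fields per well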
In short: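 Assay system: AML12 hepatocytes (mouse); Probe or stimulus: oleic acid at 100 µM to induce lipid droplet formation; Dosing: compound at 6.5 µM only; Schedule: compound with oleate, overnight; Detection: fluorescence imaging, 20x objective, two fields per well; Measure: % inhibition of lipid droplet signal.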

Q: With `COc1nc(Nc2nc3ccccc3c(=O)[nH]2)nc2ccc(C)cc12` as the molecule, how does the cell count read?
A: 136 cells

Q: Which cell count does the source give for `Nc1nc(-c2ccc(Cl)cc2)c(N=Nc2ccc(S(=O)(=O)N3CCOCC3)cc2)s1` here?
A: 623 cells

Q: Which cell count does the source give for `Cc1cccc(/C=N/Nc2cc(N3CCOCC3)nc(N3CCOCC3)n2)c1` here?
A: 601 cells

Q: For `O=C(Nc1cccc(Cn2cccn2)c1)c1cc2c(s1)CCCC2`, which cell count is on record?
A: 808 cells

Q: Which cell count does the source give for `COc1cccc2c1C(=O)c1c(O)c3c(c(O)c1C2=O)C[C@@](O)(C(=O)CO)C[C@@H]3O[C@H]1C[C@H](N)[C@H](O)[C@H](C)O1` here?
A: 218 cells

Q: Which cell count does the source give for `CCOC(=O)c1ccc(NC(=O)CCOc2ccc(C)cc2)cc1` here?
A: 808 cells

Q: With `O=C1C(NS(=O)(=O)c2cccs2)=C(N2CCN(c3cccc(C(F)(F)F)c3)CC2)C(=O)c2ccccc21` as the molecule, how does the cell count read?
A: 753 cells

Q: With `CC1C/C(=C/c2ccccn2)C(=O)/C(=C/c2ccccn2)C1` (configuration not stated) as the molecule, how does the cell count read?
A: 280 cells

Q: Which cell count does the source give for `Cc1ccc(-n2nc(C)c3c(=O)[nH]c(C(F)(F)F)nc32)cc1` here?
A: 616 cells

Q: For `COC(=O)c1ccc2c(c1)NC(=O)C(N(CC(C)C)CC(C)C)S2` (configuration not stated), which cell count is on record?
A: 578 cells

Q: Which cell count does the source give for `N/C(Cc1ccc(Cl)cc1Cl)=N\OC(=O)c1ccc(Br)o1` here?
A: 758 cells

Q: Which cell count does the source give for `COc1cccc(/C=C/C(=O)NCCc2ccc(OC)c(OC)c2)c1` here?
A: 757 cells

Q: With `CCCSC(=O)N(CC)CC(=O)Nc1c(CC)cccc1CC` as the molecule, how does the cell count read?
A: 556 cells

Q: For `CC1=C(C(=O)OCC2CCCO2)C(c2ccc(Cl)c(Cl)c2)NC(=O)N1` (configuration not stated), which cell count is on record?
A: 664 cells

Q: For `COc1ccc(C[C@H]2CN3C(=NC[C@H]3Cc3ccccc3)N2CCNC(=O)c2ccc(C)c(Br)c2)cc1`, which cell count is on record?
A: 686 cells

Q: With `CCCCOc1ccc(-c2ncc([N+](=O)[O-])cn2)cc1` as the molecule, how does the cell count read?
A: 741 cells

Q: With `CCOc1ccccc1NC(=O)CSCC(=O)Nc1ccccc1` as the molecule, how does the cell count read?
A: 759 cells

Q: For `CCOC(=O)c1[nH]c2c(c1C)C(=O)CC(c1ccc(F)cc1)C2` (configuration not stated), which cell count is on record?
A: 296 cells

Q: Which cell count does the source give for `CCOc1ccc(CCNC(=O)CCNS(=O)(=O)c2ccc(Br)cc2)cc1OCC` here?
A: 686 cells

Q: With `COCCCn1c(SCC(=O)Nc2ccc(NC(=O)c3ccco3)c(OC)c2)nc2ccccc2c1=O` as the molecule, how does the cell count read?
A: 754 cells

Q: For `Cc1ccc(C(=O)NCCc2nc3ccccc3[nH]2)cc1[N+](=O)[O-]`, which cell count is on record?
A: 598 cells

Q: Which cell count does the source give for `COc1ccc(/C=C/C(=O)NCC2COc3ccccc3O2)c(OC)c1` (configuration not stated) here?
A: 714 cells

Q: Which cell count does the source give for `CCOc1ccc(CCNC(=O)CN2CCN(Cc3ccc(F)cc3)C2=O)cc1OCC` here?
A: 715 cells

Q: With `CCOc1ccc(CCNC(=O)Cn2ncn3nc(-c4ccc(OC)cc4)cc3c2=O)cc1OCC` as the molecule, how does the cell count read?
A: 735 cells

Q: Which cell count does the source give for `Cn1cccc1/C=C1\SC(=Nc2ccc(O)cc2)NC1=O` here?
A: 272 cells

Q: With `COc1ccc(C(C(=O)NC2CCCC2)N(CCC(C)C)C(=O)CCC(=O)Nc2cc(C)on2)cc1` (configuration not stated) as the molecule, how does the cell count read?
A: 786 cells

Q: With `Cc1c(C(=O)OC2CCCC2)[nH]c2c1C(=O)CC(c1ccco1)C2` (configuration not stated) as the molecule, how does the cell count read?
A: 233 cells
